# Out of some 340,000 compounds screened, about 12,000 (3.5%) were called active. Inconclusive means that the source gave no clear call. Such entries were picked first, then a sample of the others. The call rests on the fitted dose curve; in most records, active means well fitted inhibition curve with a large enough effect; inconclusive means small, poorly fitted or top-dose-only effect, or another doubt; inactive means no such curve, though single readings can be large or run the other way. No potency is given beside an inconclusive call; the fits are too rough.
# Test: qHTS Assay for Inhibitors of Hepatitis C Virus (HCV)
# Conditions: Huh7.5.1 HCVcc-Cre (HCVcc is cell-culture hepatitis C virus) infection, luciferase reporter, 44 h; activity change, negative = inhibition: at 41.8 µM (top of the series)
# Method in brief: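 Whole-lifecycle infectious HCVcc-Cre system; cells 1,000/well, compound then virus (~0.5 moi) added 4 h after plating, 44 h culture. Luciferase read 15 sec following 15 min substrate incubation, room temp.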
# On the % scale 0 is the no-effect control and ±100 the full control effect; potency means the concentration at half of the fitted maximal effect; tags describe the fitted curve by direction and shape.
Structure (SMILES),"activity change, negative = inhibition",Potency
CCc1ccc(CCC(=O)Nc2ccc(Cl)cc2)o1,inactive: 7.68%,
COc1ccc(-n2ncc3c2CC(C)(C)CC3NC(=O)c2ccoc2C)cc1 (stereo not given),,"inconclusive [inhibitor, partial curve]"
O=[N+]([O-])c1ccc(O)c(/C=N/Nc2ccc(Cl)nn2)c1,,active: 3.98 µM
Cc1cc(NC(=O)Cc2cc(F)cc(F)c2)no1,inactive: 18.9%,
Clc1ccccc1C(c1ccccc1)(c1ccccc1)n1ccnc1,,"inconclusive [inhibitor, single point]"
Cc1cccc(Nc2nnc(-c3ccc(N4CCOCC4)c([N+](=O)[O-])c3)c3ccccc23)c1,,active: 14.1 µM
CN(C)CCNC(=O)COc1ccc(Cl)cc1Cl,inactive: -14.5%,
COc1ccc(C(=O)/C=C/c2ccc(OC)c(COc3ccc(F)cc3)c2)cc1,,"inconclusive [inhibitor, partial curve]"
COc1cc(CC(=O)Nc2cccc(S(=O)(=O)N(C)c3ccccc3)c2)cc(OC)c1OC,,active: 10 µM
COc1ccc(NCC(=O)Nc2cccc(S(=O)(=O)N3CCCC3)c2)cc1Cl,,active: 10 µM
O=C(NC(=S)Nc1cccc2c(O)cccc12)c1cccc(Br)c1,,"inconclusive [inhibitor, partial curve]"
CN(C)CCN(C(=O)c1ccco1)c1nc2cc3c(cc2s1)OCCO3,inactive: -13.5%,
COc1ccc(C(=O)Nc2ccc(Nc3ccccc3)cc2)cc1Br,,active: 8.91 µM
CCSc1nsc(NC(=O)Nc2ccccc2F)n1,,"inconclusive [inhibitor, single point]"
CC(=O)c1ccc(NC(=O)c2cnn3ccccc23)cc1,,"inconclusive [inhibitor, single point]"
CC[C@@]1(C(=O)OC)N[C@H](CN(C)C(=O)COC)[C@@H]2C(=O)N(Cc3ccccc3)C(=O)[C@@H]21,,"inconclusive [inhibitor, single point]"
COc1ccc(C2=CC(c3ccc(OC)c(OC)c3)NC(=S)N2)cc1 (stereo not given),inactive: -6.78%,
Cc1cc(C)n2ncc(C(=O)NCCc3ccccc3)c2n1,,"inconclusive [inhibitor, single point]"
Cc1oc(-c2ccccc2)cc1C(=O)Nc1ccccc1,,"inconclusive [inhibitor, partial curve]"
O=C1C(Cl)=C(N2CCCCCC2)C(=O)N1c1ccc(Br)cc1,inactive: 2.53%,
COC(=O)c1c(C)n(-c2ccc(C)cc2)c2ccc(O)cc12,,"inconclusive [inhibitor, full curve]"
CN(C)C=C1C(=O)N(C2CCCCC2)C(=O)N(C2CCCCC2)C1=O,inactive: 13.4%,
CCC(C(=O)c1ccccc1)N(C(=O)c1ccccc1Cl)N1C(=O)C2C3C=CC(C3)C2C1=O (stereo not given),inactive: 0.494%,
COc1ccc(OC)c(NC(=O)c2ccccc2NC(=O)c2ccco2)c1,,"inconclusive [inhibitor, single point]"
COc1ccc(-n2cnnc2)cc1,,"inconclusive [inhibitor, single point]"

Structure (SMILES),"activity change, negative = inhibition",Potency
CCCN=C1N(CC)C[C@@H]2[C@@H]3C(=O)N(C)C(=O)[C@@H]3[C@](CC)(C(=O)OC)N12,,"inconclusive [inhibitor, full curve, poor fit]"
COc1ccc(Nc2nnc(SCC(=O)c3cc(C)n(CC4CCCO4)c3C)s2)cc1 (stereo not given),,"inconclusive [inhibitor, single point]"
Cc1cc(C)n(-c2nc3ccccc3c(=O)n2OCC#N)n1,,"inconclusive [inhibitor, partial curve]"
COC(=O)CCC(=O)OC1(C)C(=O)C2=CN(CCCOC(C)C)C(c3ccc(OC)cc3)=CC2=C(Br)C1=O (stereo not given),inactive: -7.86%,
Cc1c(O)c(CN2CCCC2)cc2c3c(c(=O)oc12)CCC3,,"inconclusive [inhibitor, partial curve, poor fit]"
O=C(CN(C(=O)c1csnn1)c1cccc2ccccc12)NCc1ccccc1,inactive: 6.55%,
CC1CN(C)C(C)CC1OC(=O)C(c1ccccc1)c1ccccc1 (stereo not given),,"inconclusive [inhibitor, full curve]"
Cc1ccc(/C=N/NC(=O)C2=NNC(c3ccccc3)(c3ccccc3)C2)c(O)c1,,"inconclusive [inhibitor, full curve]"
COc1ccc(/C=C/C(=O)NC2CCCCCCC2)cc1S(=O)(=O)N1CCOCC1,inactive: -26.5%,
N#Cc1c2c(c(Nc3ccccc3)n3c1nc1ccccc13)CCC2,,"inconclusive [inhibitor, partial curve]"
COC(=O)Nc1ccc(S(=O)(=O)N2CCCC(C(=O)NC3CCCCC3)C2)cc1 (stereo not given),,"inconclusive [inhibitor, single point]"
COc1ccccc1CNC(=O)COC(=O)c1cccnc1SCC(=O)NCc1ccccc1OC,,"inconclusive [inhibitor, single point]"
O=[N+]([O-])c1ccc(N2CCCC2)cc1NC(c1ccccc1)c1ccccc1,,"inconclusive [inhibitor, partial curve, poor fit]"
Cc1cc(C)nc(N/N=C/c2cn[nH]c2-c2ccc(F)cc2)n1,inactive: 28.3%,
Cc1cnc(NC(=O)c2cccc(S(=O)(=O)N3CC(C)OC(C)C3)c2)s1 (stereo not given),,active: 11.2 µM
Cc1[nH]c2ccccc2c1C(=O)CSc1ccccn1,,"inconclusive [inhibitor, single point]"
O=S(=O)(c1ccccc1)c1nc(-c2ccco2)oc1N1CCCCC1,,"inconclusive [inhibitor, partial curve]"
COc1ccc(CCCc2n[nH]c(=S)o2)cc1,inactive: -2.44%,
O=C(Nc1cccc2cccnc12)c1ccc(Br)o1,,"inconclusive [inhibitor, partial curve]"
OCC1(Cc2ccccc2F)CCCN(CC2CCCCC2)C1 (stereo not given),,"inconclusive [inhibitor, single point]"
COc1ccc(-c2nnc(N3CCCCC3)c3ccccc23)cc1,inactive: 17.2%,
CCCCN(c1nc2ccccc2nc1Cl)S(=O)(=O)c1ccc(C)cc1,,"inconclusive [inhibitor, single point]"
COc1cc(O)cc2occ(-c3ccc(O)cc3)c(=O)c12,,"inconclusive [inhibitor, full curve, poor fit]"
Cc1cc(NS(=O)(=O)c2ccc(NC(=O)c3cc(-c4cccnc4)nc4ccc(Cl)cc34)cc2)no1,inactive: 51.7%,
COc1ccc(CC(=O)Nc2cc(S(=O)(=O)N3CCCCC3)ccc2C)cc1,,"inconclusive [inhibitor, single point]"

Structure (SMILES),"activity change, negative = inhibition",Potency
O=C(c1cc(-c2ccc(Cl)cc2)n(-c2ccc(Cl)cc2Cl)n1)N1CCOCC1,,"inconclusive [inhibitor, partial curve]"
Cc1ccc(S(=O)(=O)c2cc3c(=O)n4ccccc4nc3n(C3CCCC3)c2=N)cc1,,active: 5.01 µM
C=CCC1(CC=C)CCCN1C(=O)Cn1nnnc1CN(C)C(C)C,inactive: 16.7%,
Cc1ccc(NC(=O)c2cc(S(=O)(=O)N3CCOCC3)ccc2Cl)cc1S(=O)(=O)N1CCOCC1,inactive: -3.88%,
Cc1cc(C)c(S(=O)(=O)N(CC(=O)O)CC(=O)O)c(C)c1,inactive: 3.55%,
CCCOc1ccc(CNC(=O)Cc2cccs2)cc1,inactive: -5.04%,
N#Cc1ccc(C(=O)NNC(=O)c2cccc(S(=O)(=O)N3CCOCC3)c2)cc1,inactive: 10.6%,
CCCCN1CC(COCc2ccccc2)Oc2cccc(Oc3ccc(OC)cc3)c2S1(=O)=O (stereo not given),,"inconclusive [inhibitor, single point]"
COc1ccc(-c2nnc(NC(=O)c3ccc([N+](=O)[O-])o3)o2)c(OC)c1,,"inconclusive [inhibitor, single point]"
CCN(CC)S(=O)(=O)c1cccc(-c2nnc(SCc3nc4ccccc4s3)o2)c1,,active: 7.08 µM
Cc1ccc(-c2nnc(N3CCN(C(=O)Cn4c(=O)n(C)c5ccccc54)CC3)c3ccccc23)cc1,,"inconclusive [inhibitor, single point]"
O=C(/C=C/c1ccc([N+](=O)[O-])cc1)Nc1ncc([N+](=O)[O-])s1,,active: 11.2 µM
COc1ccc(Cn2c(=O)[nH]c3cc(C(=O)N4CCN(c5ccccc5F)CC4)ccc3c2=O)cc1,,"inconclusive [inhibitor, single point]"
COC(=O)c1ccccc1-c1ccc(/C=N/Nc2nc(N3CCCC3)nc(N3CCCC3)n2)o1,,active: 11.2 µM
Nc1cccnc1Sc1ccccc1,inactive: 19.3%,
NS(=O)(=O)c1ccc(N2N=C(c3ccccc3)CC2c2ccccc2Br)cc1 (stereo not given),inactive: -39.9%,
Cc1cc(C)cc(N(CC(=O)NCC2CCCO2)C(=O)CCC(=O)Nc2nccs2)c1 (stereo not given),inactive: -9.51%,
O=C(Nc1nc2cc3c(cc2s1)OCO3)C1CC1,,active: 10 µM
Cc1n[nH]c(=O)c2c(NC(=O)CSc3c(Cl)cccc3Cl)oc(C)c12,,"inconclusive [inhibitor, single point]"
CCCn1c2c(c(O)c(C(=O)NC)c1=O)CCCC2,,"inconclusive [inhibitor, partial curve]"
Cc1ccc(Cl)cc1N1CCN(C(=O)c2noc(C)c2[N+](=O)[O-])CC1,,active: 10 µM
O=C(c1ccc2c(=O)n(Cc3ccc4c(c3)OCO4)c(=O)[nH]c2c1)N1CCN(c2ccccc2)CC1,inactive: 16.4%,
CC(=O)c1cccc(NC(=O)c2cc(-c3ccco3)on2)c1,inactive: 9.88%,
CCN(CC)c1c([N+](=O)[O-])c(=O)sc2ccccc12,inactive: 0.308%,
c1ccc(CCCNCCCn2cnc3c(OCc4ccccc4)ncnc32)cc1,inactive: -35.3%,

# From PubChem BioAssay AID651820 (National Center for Advancing Translational Sciences (NCATS), 2012)
